The target in the assay is chicken c-Src (residues 81-140) SH3 domain-GST fusion protein (chicken), P00523. In words: fluorescence polarization, 50 nM labeled peptide, SH3-GST titrated.

Results on one molecule are retold here after patent US20100273722A1, “MODIFIED MINIATURE PROTEINS” (Yale University, priority 2007, published 2010).

B1: ^Flu1, fluorescently labeled analog of Peptide 1 (peptide)
peptide: CGGAPPLPPRNRPR
modifications: not checked
By Kd is commonly meant the concentration at which binding is half-saturated. Low values mean a tighter complex, high ones a looser complex. Molecule B1 had a Kd of 1500 nM.
